# Assay results from the supplement of paper PMC8728848.
# Some of the results follow.
# B1: Gal 7 (Homo sapiens) (protein)
# chain: MSNVPHKSSLPEGIRPGTVLRIRGLVPPNASRFHVNLLCGEEGGSDAALHFNPRLDTSEVVFNSKEGGSWGREESGPGVPFGRGQPFEVLIIASDDGFKAVVGDAQYHHFRHRLPLARVRLVEVGGDVQLDSVRIF
# How the values were obtained:
# Experiment in all cases: glycan array binding signal (z-score within array); higher = stronger binding
# Details in all cases: glycan notation: IUPAC condensed, linker removed; mutation: R74S
# [1] = target: Gal(b1-3)GlcNAc(b1-2)Man(a1-3)[Gal(b1-3)GlcNAc(b1-2)Man(a1-6)]Man(b1-4)GlcNAc(b1-4)GlcNAc
# Method in brief: (§1)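 Glycan array data came from 3228 arrays in the Consortium for Functional Glycomics database, and only arrays with an available protein sequence were kept. Glycan names were put into IUPAC-condensed notation, and columns mapping to the same glycan were averaged. The binding signal is a within-array Z-score, averaged across arrays of one protein sequence run at different concentrations or buffers and across linkers. A negative Z-score can be read as non-binding.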
# [2] = target: Gal(b1-3)GlcNAc(b1-2)Man(a1-3)[Gal(b1-3)GlcNAc(b1-2)Man(a1-6)]Man(b1-4)GlcNAc(b1-4)[Fuc(a1-6)]GlcNAc
# Method in brief: as §1
# [3] = target: Gal(b1-3)GlcNAc(b1-2)Man(a1-3)[GlcNAc(b1-4)][Gal(b1-3)GlcNAc(b1-2)Man(a1-6)]Man(b1-4)GlcNAc(b1-4)GlcNAc
# Method in brief: as §1
# [4] = target: Gal(b1-3)GlcNAc(b1-2)[Gal(b1-3)GlcNAc(b1-6)]Man(a1-6)[Gal(b1-3)GlcNAc(b1-2)Man(a1-3)]Man(b1-4)GlcNAc(b1-4)GlcNAc
# Method in brief: as §1
# [5] = target: Gal(b1-3)GlcNAc(b1-3)Gal(b1-3)GlcNAc
# Method in brief: as §1
# [6] = target: Gal(b1-3)GlcNAc(b1-3)Gal(b1-4)Glc
# Method in brief: as §1
# [7] = target: Gal(b1-3)GlcNAc(b1-3)Gal(b1-4)GlcNAc
# Method in brief: as §1
# [8] = target: Gal(b1-3)GlcNAc(b1-3)Gal(b1-4)GlcNAc(b1-2)Man(a1-3)[Gal(b1-3)GlcNAc(b1-3)Gal(b1-4)GlcNAc(b1-2)Man(a1-6)]Man(b1-4)GlcNAc(b1-4)GlcNAc
# Method in brief: as §1
# [9] = target: Gal(b1-3)GlcNAc(b1-3)Gal(b1-4)GlcNAc(b1-2)[Gal(b1-3)GlcNAc(b1-3)Gal(b1-4)GlcNAc(b1-6)]Man(a1-6)[Gal(b1-3)GlcNAc(b1-3)Gal(b1-4)GlcNAc(b1-2)Man(a1-3)]Man(b1-4)GlcNAc(b1-4)[Fuc(a1-6)]GlcNAc
# Method in brief: as §1
# [10] = target: Gal(b1-3)GlcNAc(b1-3)Gal(b1-4)GlcNAc(b1-3)Gal(b1-4)GlcNAc(b1-2)[Gal(b1-3)GlcNAc(b1-3)Gal(b1-4)GlcNAc(b1-3)Gal(b1-4)GlcNAc(b1-6)]Man(a1-6)[Gal(b1-3)GlcNAc(b1-3)Gal(b1-4)GlcNAc(b1-3)Gal(b1-4)GlcNAc(b1-2)Man(a1-3)]Man(b1-4)GlcNAc(b1-4)[Fuc(a1-6)]GlcNAc
# Method in brief: as §1
# [11] = target: Gal(b1-3)GlcNAc(b1-3)Gal(b1-4)GlcNAc(b1-6)[Gal(b1-3)GlcNAc(b1-3)]Gal(b1-4)Glc
# Method in brief: as §1
# [12] = target: Gal(b1-3)GlcNAc(b1-3)Gal(b1-4)[Fuc(a1-3)]GlcNAc
# Method in brief: as §1
# [13] = target: Gal(b1-3)GlcNAc(b1-3)Gal(b1-4)[Fuc(a1-3)]GlcNAc(b1-6)[Gal(b1-3)GlcNAc(b1-3)]Gal(b1-4)Glc
# Method in brief: as §1
# [14] = target: Gal(b1-3)GlcNAc(b1-3)GalNAc
# Method in brief: as §1
# [15] = target: Gal(b1-3)GlcNAc(b1-6)Gal(b1-4)GlcNAc
# Method in brief: as §1
# [16] = target: Gal(b1-3)GlcNAc(b1-6)GalNAc
# Method in brief: as §1
# [17] = target: Gal(b1-3)GlcNAc(b1-6)[Gal(b1-3)]GalNAc
# Method in brief: as §1
# Gal(b1-3)GlcNAc6S = target: Gal(b1-3)GlcNAc6S
# Method in brief: as §1
# [18] = target: Gal(b1-3)[Fuc(a1-4)]GlcNAc
# Method in brief: as §1
# [19] = target: Gal(b1-3)[Fuc(a1-4)]GlcNAc(b1-2)Man
# Method in brief: as §1
# [20] = target: Gal(b1-3)[Fuc(a1-4)]GlcNAc(b1-2)Man(a1-3)[Gal(b1-3)[Fuc(a1-4)]GlcNAc(b1-2)Man(a1-6)]Man(b1-4)GlcNAc(b1-4)[Fuc(a1-6)]GlcNAc
# Method in brief: as §1
# [21] = target: Gal(b1-3)[Fuc(a1-4)]GlcNAc(b1-3)Gal(b1-3)[Fuc(a1-4)]GlcNAc
# Method in brief: as §1
# [22] = target: Gal(b1-3)[Fuc(a1-4)]GlcNAc(b1-3)Gal(b1-4)[Fuc(a1-3)]GlcNAc
# Method in brief: as §1
# [23] = target: Gal(b1-3)[Fuc(a1-4)]GlcNAc(b1-6)GalNAc
# Method in brief: as §1
# [24] = target: Gal(b1-3)[GlcNAc(b1-6)]GalNAc
# Method in brief: as §1
# [25] = target: Gal(b1-3)[Neu5Ac(a2-6)]GalNAc
# Method in brief: as §1
# [26] = target: Gal(b1-3)[Neu5Ac(a2-6)]GlcNAc(b1-4)Gal(b1-4)Glc
# Method in brief: as §1
# [27] = target: Gal(b1-3)[Neu5Ac(b2-6)]GalNAc
# Method in brief: as §1
# Gal(b1-4)Gal = target: Gal(b1-4)Gal
# Method in brief: as §1
# [28] = target: Gal(b1-4)GalNAc(a1-3)[Fuc(a1-2)]Gal(b1-4)GlcNAc
# Method in brief: as §1
# [29] = target: Gal(b1-4)GalNAc(b1-3)[Fuc(a1-2)]Gal(b1-4)GlcNAc
# Method in brief: as §1
# Gal(b1-4)Glc = target: Gal(b1-4)Glc
# Method in brief: as §1
# Gal(b1-4)Glc6S = target: Gal(b1-4)Glc6S
# Method in brief: as §1
# Gal(b1-4)GlcNAc = target: Gal(b1-4)GlcNAc
# Method in brief: as §1
# [30] = target: Gal(b1-4)GlcNAc(a1-6)Gal(b1-4)GlcNAc
# Method in brief: as §1
# Gal(b1-4)GlcNAc(b1-2)Man = target: Gal(b1-4)GlcNAc(b1-2)Man
# Method in brief: as §1
# [31] = target: Gal(b1-4)GlcNAc(b1-2)Man(a1-3)Man(b1-4)GlcNAc(b1-4)GlcNAc
# Method in brief: as §1
# [32] = target: Gal(b1-4)GlcNAc(b1-2)Man(a1-3)[Gal(b1-4)GlcNAc(b1-2)Man(a1-6)]Man(b1-4)GlcNAc(b1-4)GlcNAc
# Method in brief: as §1
# [33] = target: Gal(b1-4)GlcNAc(b1-2)Man(a1-3)[Gal(b1-4)GlcNAc(b1-2)Man(a1-6)]Man(b1-4)GlcNAc(b1-4)[Fuc(a1-6)]GlcNAc
# Method in brief: as §1
# [34] = target: Gal(b1-4)GlcNAc(b1-2)Man(a1-3)[Gal(b1-4)GlcNAc(b1-2)Man(a1-6)][Gal(b1-4)GlcNAc(b1-4)]Man(b1-4)GlcNAc(b1-4)[Fuc(a1-6)]GlcNAc
# Method in brief: as §1
# [35] = target: Gal(b1-4)GlcNAc(b1-2)Man(a1-3)[Gal(b1-4)GlcNAc(b1-2)Man(a1-6)][GlcNAc(b1-4)]Man(b1-4)GlcNAc(b1-4)[Fuc(a1-6)]GlcNAc
# Method in brief: as §1
# [36] = target: Gal(b1-4)GlcNAc(b1-2)Man(a1-3)[GlcNAc(b1-2)Man(a1-6)]Man(b1-4)GlcNAc(b1-4)GlcNAc
# Method in brief: as §1
# [37] = target: Gal(b1-4)GlcNAc(b1-2)Man(a1-3)[GlcNAc(b1-4)][Gal(b1-4)GlcNAc(b1-2)Man(a1-6)]Man(b1-4)GlcNAc(b1-4)GlcNAc
# Method in brief: as §1
# [38] = target: Gal(b1-4)GlcNAc(b1-2)Man(a1-3)[Man(a1-6)]Man(b1-4)GlcNAc(b1-4)GlcNAc
# Method in brief: as §1
# [39] = target: Gal(b1-4)GlcNAc(b1-2)Man(a1-6)Man(b1-4)GlcNAc(b1-4)GlcNAc
# Method in brief: as §1
binder,measurement,setting,value
B1,glycan array binding signal (z-score),[1],-0.529
same,glycan array binding signal (z-score),[2],0.404
same,glycan array binding signal (z-score),[3],0.83
same,glycan array binding signal (z-score),[4],-0.103
same,glycan array binding signal (z-score),[5],-0.548
same,glycan array binding signal (z-score),[6],-0.342
same,glycan array binding signal (z-score),[7],-0.473
same,glycan array binding signal (z-score),[8],-0.146
same,glycan array binding signal (z-score),[9],0.816
same,glycan array binding signal (z-score),[10],0.86
same,glycan array binding signal (z-score),[11],-0.069
same,glycan array binding signal (z-score),[12],-0.234
same,glycan array binding signal (z-score),[13],-0.355
same,glycan array binding signal (z-score),[14],-0.532
same,glycan array binding signal (z-score),[15],-0.301
same,glycan array binding signal (z-score),[16],-0.398
same,glycan array binding signal (z-score),[17],-0.445
same,glycan array binding signal (z-score),Gal(b1-3)GlcNAc6S,-0.422
same,glycan array binding signal (z-score),[18],-0.383
same,glycan array binding signal (z-score),[19],0.195
same,glycan array binding signal (z-score),[20],1.68
same,glycan array binding signal (z-score),[21],-0.454
same,glycan array binding signal (z-score),[22],-0.452
same,glycan array binding signal (z-score),[23],-0.149
same,glycan array binding signal (z-score),[24],-0.429
same,glycan array binding signal (z-score),[25],0.399
same,glycan array binding signal (z-score),[26],-0.354
same,glycan array binding signal (z-score),[27],-0.589
same,glycan array binding signal (z-score),Gal(b1-4)Gal,-0.356
same,glycan array binding signal (z-score),[28],-0.282
same,glycan array binding signal (z-score),[29],-0.54
same,glycan array binding signal (z-score),Gal(b1-4)Glc,-0.398
same,glycan array binding signal (z-score),Gal(b1-4)Glc6S,-0.449
same,glycan array binding signal (z-score),Gal(b1-4)GlcNAc,0.007
same,glycan array binding signal (z-score),[30],-0.469
same,glycan array binding signal (z-score),Gal(b1-4)GlcNAc(b1-2)Man,0.218
same,glycan array binding signal (z-score),[31],-0.422
same,glycan array binding signal (z-score),[32],-0.525
same,glycan array binding signal (z-score),[33],-0.067
same,glycan array binding signal (z-score),[34],-0.301
same,glycan array binding signal (z-score),[35],-0.374
same,glycan array binding signal (z-score),[36],-0.518
same,glycan array binding signal (z-score),[37],-0.353
same,glycan array binding signal (z-score),[38],-0.132
same,glycan array binding signal (z-score),[39],-0.36
